Read counts are not given, so values of variants with three or more changes are uncertain.
B1: CPEB3 Ribozyme (parent)
chain: UAACAGGGGGCCACAGCAGAAGCGUUCACGUCGCAGCCCCUGUCAGAUUCUGGUGAAUCUGCGAAUUCUGCUGUAUAUCUC

Variants of: B1
Test: self-cleavage, relative activity (ratio to wild type); higher = more cleavage; in vitro, sequencing
In short: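 Libraries of CPEB3 self-cleaving ribozyme mutants came from rounds of error-prone PCR and carried barcodes, which DNA sequencing matched to variants. In vitro transcription used T7 RNA polymerase at 37°C for 5 hours, with a further 15 min in DNase I before EDTA stopped the reaction; the ribozymes cleaved during both steps. The RNA was reverse transcribed with template switching and sequenced on Illumina. Relative activity is the cleaved/total read fraction of a variant divided by that of the unmutated ribozyme, averaged over three batches with at least 5 reads.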

| Variant | self-cleavage |
| --- | --- |
| UAACAGGGGGCCACAGCAGAGGCGUUCACGUCGCAGCCCCUGUCAGAUUCUGGUCAAUCUGCGAAUUCCGCUGUAUAUCUC [A21G G55C U69C] | 0.16 |
| UAACAGGGGGCCACAGCAGAGGCGUUCACGUCGCAGCCCCUGUCAGAUUCUGGUGAAUCUACGGAUUCUGCUGUAUAUCUC [A21G G61A A64G] | 0.41 |
| UAACAGGGGGCCACAGCAGAGGCGUUCACGUCGCAGCCCCUGUCAGAUUCUGGUGAAUCUGCUAAUUCUGCUGUAUAUCCC [A21G G63U U80C] | 0.77 |
| UAACAGGGGGCCACAGCAGAGGCGUUCACGUCGCAGCCCCUGUCAGAUUCUGGUGAAUCUGCGAAUUCUGCUACAUAUCUC [A21G G73A U74C] | 1.07 |
| UAACAGGGGGCCACAGCAGAGGCGAUCUCGUCGCAGCCCCCGUCAGAUUCUGGUGAAUCUGCGAAUUCUGCUGUAUAUCUC [A21G U25A A28U U41C] | 0.07 |
| UAACAGGGGGCCACAGCAGAGGCGAUCACGUCGCCGCCCCUGUCAGAUUCUGGUGAAUCUGCGAAUUCUGCUGUAUAUCUC [A21G U25A A35C] | 0.26 |
| UAACAGGGGGCCACAGCAGAGGCGAUCACGUCGCUGCCCCUGUCAGAUUCUUGUGAAUCUGCGAAUCCUGCUGUAUAUCUC [A21G U25A A35U G52U U67C] | 0.06 |
| UAACAGGGGGCCACAGCAGAGGCGAUCACGUCGCAGCCCCUGUCCGGCUCAGGUGAGUCUGCGAAUUCUGCUGUAUAUCUC [A21G U25A A45C A47G U48C U51A A57G] | 0.04 |
| UAACAGGGGGCCACAGCAGAGGCGAUCACGUCGCAGCCCCUGUCAGGUUCUGGUGAAUCUGCGAAUUCUGCUGUAUACCUC [A21G U25A A47G U78C] | 0.25 |
| UAACAGGGGGCCACAGCAGAGGCGAUCACGUCGCAGCCCCUGUCAGUUUCUGGUGAAUCUGCGAAUUCUGCUGUAUAUCUC [A21G U25A A47U] | 0.2 |
| UAACAGGGGGCCACAGCAGAGGCGAUCACGUCGCAGCCCUUGUCAGAUUCUGGUGAAUCUGCGAAUUCUGCUGUAUAUCUC [A21G U25A C40U] | 0.11 |
| UAACAGGGGGCCACAGCAGAGGCGACCACGUCGCAGCCCCCGUCAGAUUCUGGCGAAUCUGCGAAUUCCGCUGUAUAUCUC [A21G U25A U26C U41C U54C U69C] | 0.09 |
| UAACAGGGGGCCACAGCAGAGGCGAUCACGUCGCAGCCCCAGUCAGAUUCUGGUGAAUCUGCGUAUUCCGCUGUAUAUCUC [A21G U25A U41A A64U U69C] | 0.26 |
| UAACAGGGGGCCACAGCAGAGGCGAUCACGUCGCAGCCCCCGUCAGAUUCUGGUGAAUCUGCGAAUUCUGCUGUAUAUCUC [A21G U25A U41C] | 0.14 |
| UAACAGGGGGCCACAGCAGAGGCGAUCACGUCGCAGCCCCCGUCAGAUUCUGGUUAAUCUGCGAAUUCUGCUGUAUAUCUC [A21G U25A U41C G55U] | 0.07 |
| UAACAGGGGGCCACAGCAGAGGCGAUCACGUCGCAGCCCCUGCCAGGUUCUGGUGGAUCUGCGAAUUCUGCUGUAUAUCUC [A21G U25A U43C A47G A56G] | 0.07 |
| UAACAGGGGGCCACAGCAGAGGCGAUCACGUCGCAGCCCCUGUCAGACUCCGGUGAAUCUGCGAAUUCUGCCGUAUAACUC [A21G U25A U48C U51C U72C U78A] | 0.06 |

| Variant | self-cleavage |
| --- | --- |
| UAACAGGGGGCCACAGCAGAGGCGAUCACGUCGCAGCCCCUGUCAGAUUCUGGAGAAUCUGCGUAUUCUGCUGUAUAGCUC [A21G U25A U54A A64U U78G] | 0.12 |
| UAACAGGGGGCCACAGCAGAGGCGAUCACGUCGCAGCCCCUGUCAGAUUCUGGUGAAUCCGCGAAUUCUGCUGUUUAUCUC [A21G U25A U60C A75U] | 0.12 |
| UAACAGGGGGCCACAGCAGAGGCGCUCCCGUCGCAGCCCCGGUCUGAUUCUGGUGAACCUGCGAAUUCUGCUGUAUACCUC [A21G U25C A28C U41G A45U U58C U78C] | 0 |
| UAACAGGGGGCCACAGCAGAGGCGCUCGCGUCGCAGCCCCUGUCAGAUUCUGGUGAAUCUGCGGGUUCUGCUGUAUAUCUC [A21G U25C A28G A64G A65G] | 0.19 |
| UAACAGGGGGCCACAGCAGAGGCGCUCGCGUCGCAGCCCCUGACAGAUUCUGGUGAAUCCGCGAAUUCUGCUGUAUAUCUC [A21G U25C A28G U43A U60C] | 0.05 |
| UAACAGGGGGCCACAGCAGAGGCGCUCGCGUCGCAGCCCCUGCCAGAUUCUGGUGAAUCUGCGGAUUCUGCUGUAUAUCUC [A21G U25C A28G U43C A64G] | 0.51 |
| UAACAGGGGGCCACAGCAGAGGCGCUCGCGUCGCAGCCCCUGUCAGAAUCUGGUGAAUCUGCGAAUUCUGCUGUAUAUCUC [A21G U25C A28G U48A] | 0.26 |
| UAACAGGGGGCCACAGCAGAGGCGCUCGCGUCGCAGCCCCUGUCAGAUUCUGGUGAAUCUGCGAAUUCUGCUGUAUAUCCC [A21G U25C A28G U80C] | 0.42 |
| UAACAGGGGGCCACAGCAGAGGCGCUCACGUCGCGGCCCCUGUCAGAUUCUGGUGAAUCUGCGAAUUCUGCUGUAUAUUUC [A21G U25C A35G C79U] | 0.1 |
| UAACAGGGGGCCACAGCAGAGGCGCUCACGUCGCGGCCCCUGCCAGAUUCUGGUGGAUCUGCGAAUUCUGCUGUAUAUCAC [A21G U25C A35G U43C A56G U80A] | 0 |
| UAACAGGGGGCCACAGCAGAGGCGCUCACGUCGCGGCCCCUGUCAGAUUCUGGCGAAUCUGCGAAUUCUGCUGUAUAUCUC [A21G U25C A35G U54C] | 0.22 |
| UAACAGGGGGCCACAGCAGAGGCGCUCACGUCGCAGCCCCUGUCGGAUUCUGGUGAGUCUGCGAAUUCUGCUGUAUAUCUC [A21G U25C A45G A57G] | 0.18 |
| UAACAGGGGGCCACAGCAGAGGCGCUCACGUCGCAGCCCCUGUCGGACUCUGGUGAAUCUGCGAAUUCUGCUGUAUAUCCC [A21G U25C A45G U48C U80C] | 0.31 |
| UAACAGGGGGCCACAGCAGAGGCGCUCACGUCGCAGCCCCUGUCGGAUUCUGGUGAAUCUGCGAAUUCUGCUGUAUACCUC [A21G U25C A45G U78C] | 0.14 |
| UAACAGGGGGCCACAGCAGAGGCGCUCACGUCGCAGCCCCUGUCAGAUUCUGGUGGAUCUGCGAAUUCAGCUGUAUAUCUC [A21G U25C A56G U69A] | 0.05 |
| UAACAGGGGGCCACAGCAGAGGCGCUCACGUCGCAGCCCCUGUCAGAUUCUGGUGAGUCUGCGAAUUCUGCUGCAUAUCUC [A21G U25C A57G U74C] | 0.45 |
| UAACAGGGGGCCACAGCAGAGGCGCUCACGUCGCAGCCCCUGUCAGAUUCUGGUGAAUCUGCGAAUUCUGCUGUAUUUCUC [A21G U25C A77U] | 0.33 |
